We go through 55 compounds from PubChem BioAssay (NCI).

Molecules are shown by their SMILES.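 How tested: cells in 96-well plates exposed to compound for 48 hours at five concentrations. GI50: concentration for 50% inhibition of growth. Definition used: TGI = concentration required for complete inhibition of growth.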 Numbered stars: 1 amine (or outer) side, 2 acyl side, 3 side chain; on linkers, the order of the positions; unused ones are H or OH. Bridge positions count the residues as written; N and C are the ends. Square brackets hold non-standard residues; d marks the D form. Peptide text beside a SMILES is read from it. I, II: the chains in the order shown. Actinocin(9to1) = Cc1c2oc3c(C)ccc(C(=O)[*:1])c3nc-2c(C(=O)[*:2])c(N)c1=O; NMeH = CN[CH](Cc1c[nH]cn1)C(=O)O; Sar = CNCC(=O)O

In this test the test system is NCI-H322M lung. In words: NCI-60 cell line screen, 48 h.
`CC(C)(C)OC(=O)[C@@H]1CCC(=O)N1C1(c2ccccc2)c2ccccc2-c2ccccc21` gave a TGI above 100 µM. With `COc1ccc2c(c1)/C(=C\c1ccncc1)C(=O)N2`, the GI50 is 7.87 µM and the TGI worked out at 31.6 µM.

`Fc1cccc(F)c1C1SCc2nc3cc(Cl)c(Cl)cc3n21` (centres undefined) gave a TGI above 100 µM. Regarding `C=C(C)[C@@H]1CCC=C2CC[C@]3(C)[C@H](CC[C@@H]4[C@@]5(C)CCCNC(C)(C)[C@@H]5CC[C@]43C)[C@H]21`, the GI50 was 2.18 µM and the TGI was 5.38 µM. Compound `O=C(c1ccccc1)c1ccc2nc(-c3c(Cl)c(Cl)c(Cl)c(Cl)c3-c3nnc(-c4ccccc4)o3)[nH]c2c1` displayed a TGI above 100 µM. Same read-out and setting: the figure for `CC1C(NNC(N)=O)Oc2cc3c(cc2C1c1ccccc1O)OCO3` (centres undefined) is above 100 µM; for `Cc1ccc(S(=O)(=O)NC(=O)NC(Cc2ccc(O)cc2)C(=O)O)cc1` (centres undefined) it is above 100 µM. Still for that read-out and setting: the figure for `Cc1c2oc3c(C)ccc(C(=O)NC4C(=O)NC(C(C)C)C(=O)N5CCCC5C(=O)N(C)CC(=O)N(C)C(Cc5cnc[nH]5)C(=O)OC4C)c3nc-2c(C(=O)NC2C(=O)NC(C(C)C)C(=O)N3CCCC3C(=O)N(C)CC(=O)N(C)C(Cc3cnc[nH]3)C(=O)OC2C)c(N)c1=O` (centres undefined) (I: TVP[Sar][NMeH] / II: TVP[Sar][NMeH]; ester I:1-I:C, II:1-II:C; linker I:N-II:N via Actinocin(9to1); configuration not given here) is above 100 µM; for `Cn1cccc1-c1ccc(-c2ccc(CO)[se]2)[se]1` it is above 100 µM. `CCCCCCCCCCCC1=NC(C)(C)CN1C(C)(C)CO`: the GI50 was 6.19 µM and the TGI was determined as 31.2 µM. `COC(C/C(=C/CO[Si](C(C)C)(C(C)C)C(C)C)C(=O)N(COCC[Si](C)(C)C)c1ccccc1I)OC` returned a TGI above 100 µM. With `Oc1c(C(Nc2ccccc2Br)c2ccccc2)ccc2cccnc12` (centres undefined), the GI50 is 4.57 µM and the TGI was above 100 µM. For `Cc1ccc(S(=O)(=O)Oc2ccc3c4c(c(=O)oc3c2)CCCCCC4)cc1`, the GI50 is above 100 µM and the TGI was above 100 µM. In turn, `C#CC1(O)CCC2C3CCc4cc(Oc5nc(F)nc(-c6c7ccccc7c7n6CCS7)n5)ccc4C3CC[C@@]21C` (some centres undefined) yielded a TGI above 100 µM.

Take `CC1=NN(c2cccc(Cl)c2)C2(C1=Cc1ccc(O)cc1)C(Cl)C(=O)N2c1nc2ccccc2s1` (centres undefined): the TGI stood at 74.6 µM. In the case of `N#Cc1c(-c2ccc(Cl)cc2)cc(-c2ccc(Nc3ccnc4cc(Cl)ccc34)cc2)[nH]c1=O`, the TGI is above 100 µM. The compound `O=C(O)CSc1ccccc1C(=O)O` displayed a TGI above 100 µM. Consider `COc1ccccc1/C=C1\COc2ccc(-c3ccccc3)cc2C1=O`, for which the GI50 is 2.07 µM and the TGI was determined as 8.53 µM.

Take `NC(CCCC(N)P(=O)(O)O)C(=O)O` (centres undefined): the TGI is above 100 µM. In the case of `N#C/C(=C1\SCC(=O)N1c1ccccc1)c1nc2ccccc2[nH]1`, the TGI was above 100 µM. Still for that read-out and setting: the figure for `CCn1c(=O)c2nc(SC)sc2n(-c2ccc(C)cc2)c1=O` is above 100 µM; for `CC(C(=O)OCc1ccccc1)N(Cc1ccccc1)Cc1ccccc1` (centres undefined) it is above 100 µM. For `c1ccc(-c2nn3c(c2-c2ccnc4cc(OCCN5CCOCC5)ccc24)CCC3)nc1`, the GI50 was 55.8 µM and the TGI is above 100 µM. For the compound `CSC(SC)=C(C#N)C(=O)Nc1cccc(Cl)c1`, the TGI was above 100 µM. The same measure, in the same setting: the figure for `CC(C)C1CO[C@]2(C)CCC(=O)N12` (some centres undefined) is above 100 µM. The same measure, in the same setting: in the case of `C#CC[C@@]12CC(=O)C[C@@H]1CCC1(C2)OCCO1` (tested in a mixture with another compound) it was above 100 µM; in that of `O=C(O)CCC(=O)OCN1C(=O)C2C3C=CC(C2C1=O)C1C2C(=O)N(COC(=O)CCC(=O)O)C(=O)C2C31` (centres undefined), above 100 µM.

With `COC(=O)c1cc(-c2ccccc2)[nH]c1N/N=C/c1c(Cl)cccc1Cl`, the GI50 is 0.521 µM and the TGI stood at 23.3 µM. In the case of `O=C(/C(=C(/O)c1ccccc1)c1nc2ccccc2sc1=O)c1ccccc1`, the TGI is above 100 µM. The same measure, in the same setting: in the case of `O=C1NC(=O)c2ccccc2/C1=C/c1ccc2c(c1)OCO2` it was above 100 µM; in that of `COC(=O)C1CC2(C)C=CC1N(C(=O)OCc1ccccc1)C2` (centres undefined), above 100 µM; in that of `C=CCn1c(=S)sc2c(C(=O)OCC)c3c(C)cc(C)cn3c2c1=O`, above 100 µM. Compound `O=C1CCCNn2c(nc3ncccc3c2=O)N1` registered a TGI above 100 µM.

`N#Cc1nc2cc(Cl)ccc2nc1N1CCN(c2ccc([N+](=O)[O-])cc2)CC1`: the TGI is above 100 µM. Same read-out and setting: the figure for `C#C[C@]1(O)CC[C@H]2[C@@H]3CCC4=C/C(=N/NC(=O)c5cccc6c(=O)c7ccccc7[nH]c56)CCC4[C@H]3CC[C@@]21C` (some centres undefined) is above 100 µM; for `CC[C@@]1(O)C(=O)OCc2c1cc1n(c2=O)Cc2c-1nc1ccc(O)cc1c2[Si](C)(C)C(C)(C)C` it is 18.9 µM; for `CCc1cccc2c3c([nH]c12)-c1ccccc1NC(=O)C3` it is above 100 µM. On to `O=C1CCc2c(sc3[nH]c(=S)n(-c4cc(C(F)(F)F)cc(C(F)(F)F)c4)c(=O)c23)C1`, for which the GI50 is 0.578 µM and the TGI was 28.7 µM.

On to `c1nc(NCCc2cnc[nH]2)c2[nH]cnc2n1`, for which the TGI was above 100 µM. With `C#CC(O)(c1nc2ccccc2s1)c1nc2ccccc2s1`, the TGI was 98.4 µM. On the same count and under the same terms, the figure for `CC(C)/C=C1\CCC(CN2CCOCC2)C1=O` (centres undefined) is above 53.4 µM. The same measure, in the same setting: in the case of `COc1ccccc1N=Nc1c(-c2ccccc2)nn(C(=O)CC(=O)Nc2cccc(C)c2)c1-c1ccccc1` it was above 100 µM; in that of `N#CC1(C#N)C(C#N)(C#N)C1(C#N)C(N)=O`, above 100 µM; in that of `CCCn1c(SCCSc2c3ccccc3c(-c3nc(F)nc(F)n3)n2CCC)c2ccccc2c1-c1nc(F)nc(F)n1`, above 100 µM. Consider `CCN1C/C(=C\c2ccc(Cl)cc2)c2nc(N)c(C#N)c(-c3ccc(Cl)cc3)c2C1`, for which the TGI is above 100 µM. The compound `CC1CC[C@@]2(OC1)O[C@H]1[C@H](O)[C@H]3[C@@H]4CC[C@H]5C[C@@H](OC6OC(CO)C(OC7OC(CO)C(O)C(OC8OCC(O)C(O)C8O)C7OC7OC(CO)C(O)C(O)C7OC7OC(CO)C(O)C(O)C7O)C(O)C6O)[C@H](O)C[C@]5(C)[C@H]4CC[C@]3(C)[C@H]1[C@@H]2C` (some centres undefined) gave a TGI above 10 µM. Regarding `CNC(=O)NCC1OC(n2cnc3c(NC(=O)Nc4ccccc4)ncnc32)C(O[Si](C)(C)C(C)(C)C)C1O[Si](C)(C)C(C)(C)C` (centres undefined), the GI50 was 6.86 µM and the TGI was above 100 µM. Turning to `CCOC(=O)C1CC(C(=O)c2ccccc2)N2c3ccccc3-c3ccccc3C12` (centres undefined), the TGI was above 100 µM.

The compound `COc1ccc(-n2c(=O)c3[nH]c(=S)[nH]c3n(-c3ccc(OC)cc3)c2=S)cc1` showed a TGI above 100 µM. On the same count and under the same terms, in the case of `O=C(NNC(=S)Nc1ccccc1)c1nsc2ccccc12` it was above 100 µM; in that of `COc1ccc(C#Cn2nnc3ccccc32)cc1`, above 100 µM. As for `CN(C)C(=O)Nc1nc2cc(Cl)c(Cl)cc2[nH]1`, the GI50 is 10.2 µM and the TGI is above 100 µM. On the same counts, the results for `COc1c(C(C)=O)c(OCCCCOc2c(C(C)=O)c(OC)c3ccoc3c2OC)c(OC)c2occc12` are above 100 µM and above 100 µM. On the same counts, the results for `NC(=N\N=C/c1ccc(O)cc1)/C(N)=N\N=C/c1ccc(O)cc1` are above 68.6 µM and above 100 µM. For `O=C(NCCN1CCOCC1)OCc1nc2nc(Cl)nc(N3CCOCC3)c2[nH]1`, in that order: 4.45 µM and above 100 µM.
